Source: PMC4336329 (PLoS ONE, 2015)
The campaign covered roughly 310,000 compounds. About 2,200 (0.71%) showed an effect of 50% or more. The effect is printed as a negative number. This is one part of the list.

target: human ether-à-go-go-related gene (hERG) potassium channel (human, UniProt Q12809); assay: primary screen, population patch clamp on CHO cells stably expressing hERG
Sequence (Q12809 whole entry, looked up): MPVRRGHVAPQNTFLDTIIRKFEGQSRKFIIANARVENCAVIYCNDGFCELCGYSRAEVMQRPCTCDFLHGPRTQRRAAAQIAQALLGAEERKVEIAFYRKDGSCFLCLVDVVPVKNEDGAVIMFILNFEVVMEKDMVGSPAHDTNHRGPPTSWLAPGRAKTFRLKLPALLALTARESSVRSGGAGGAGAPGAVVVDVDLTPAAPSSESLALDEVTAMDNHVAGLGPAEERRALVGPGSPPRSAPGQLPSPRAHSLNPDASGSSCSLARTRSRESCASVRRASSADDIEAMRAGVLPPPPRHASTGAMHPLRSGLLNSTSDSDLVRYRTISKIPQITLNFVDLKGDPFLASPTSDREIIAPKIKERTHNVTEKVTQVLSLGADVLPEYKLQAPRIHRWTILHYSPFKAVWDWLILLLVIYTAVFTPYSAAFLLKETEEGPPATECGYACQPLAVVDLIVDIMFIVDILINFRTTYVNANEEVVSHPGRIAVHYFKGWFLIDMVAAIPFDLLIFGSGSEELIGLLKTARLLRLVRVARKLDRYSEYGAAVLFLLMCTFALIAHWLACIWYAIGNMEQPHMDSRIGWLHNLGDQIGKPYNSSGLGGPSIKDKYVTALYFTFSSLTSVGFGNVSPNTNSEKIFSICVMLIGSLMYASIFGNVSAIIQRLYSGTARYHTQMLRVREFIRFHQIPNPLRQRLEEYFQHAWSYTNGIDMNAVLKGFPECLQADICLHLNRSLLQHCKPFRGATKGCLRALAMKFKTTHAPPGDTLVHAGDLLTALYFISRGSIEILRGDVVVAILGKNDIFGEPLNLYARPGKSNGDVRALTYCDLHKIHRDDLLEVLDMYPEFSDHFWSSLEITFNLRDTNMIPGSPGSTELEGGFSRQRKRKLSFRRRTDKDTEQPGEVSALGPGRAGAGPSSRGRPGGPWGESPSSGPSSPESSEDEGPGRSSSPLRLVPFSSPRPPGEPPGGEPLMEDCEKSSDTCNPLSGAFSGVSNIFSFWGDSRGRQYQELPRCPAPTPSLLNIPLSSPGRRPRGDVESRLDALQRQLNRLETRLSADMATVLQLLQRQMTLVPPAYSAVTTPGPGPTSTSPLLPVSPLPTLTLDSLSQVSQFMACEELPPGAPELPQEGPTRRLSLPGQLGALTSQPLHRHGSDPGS

Point of comparison: COC(=O)C1CCN(C(=O)Cn2nnc(-c3ccccc3)n2)CC1, “hERG current change (%, negative = inhibition) at 1uM” value 14.2%. Against it:
- NS(=O)(=O)c1ccc(CCNC(c2ccccc2)c2ccccc2)cc1 — lower, -1.63%
- COc1cccc(Nc2nnc(SCC(=O)N(CC(C)C)CC(C)C)s2)c1 — higher, 14.3%
- Cc1ccc(S(=O)(=O)NNC(=O)C2CCN(S(=O)(=O)c3ccc(C)cc3)CC2)cc1 — lower, 10.8%
- COc1ccc(CCNC(=O)CCCn2c(=O)c3cccn3c3cccnc32)c(OC)c1OC — lower, -8.16%
- O=C1CN(C(=S)Nc2ccc(OC(F)F)cc2)CCN1 — lower, 9.99%
- COC(=O)C1CCN(CC(N)=O)CC1 — lower, 8.38%
- CC(=NCCN1CCOCC1)c1c(O)n(Cc2ccccc2)c(=O)[nH]c1=O — lower, -20.6%
- O=C(CN1CCN(C(=O)CN2C(=O)NC3(CCCC3)C2=O)CC1)Nc1cccc(F)c1 — lower, 6.32%
- CCN(CC)c1ccc(/C=N/N2CCN(c3ccccc3OC)CC2)cc1 — lower, 12.9%
- CCOc1cc(CNCc2cccs2)ccc1OCC(=O)NC(C)(C)C.Cl — lower, 10.6%
- Fc1cccc(NC(=S)N2CCN(c3ccccn3)CC2)c1 — lower, 12.6%
- Cc1ccc(Cn2c(NCCCn3ccnc3)nc3c2c(=O)n(C)c(=O)n3C)cc1 — lower, -2.85%
- CCc1ccc(C(=O)C(C)OC(=O)c2cccc(S(=O)(=O)N3CCOCC3)c2)cc1 (centres unmarked) — lower, 6.87%
- O=C(NCc1ccc(F)cc1)C1CCN(S(=O)(=O)c2cccnc2)CC1 — lower, 7.26%
- O=C(OCC(=O)N1CCc2ccccc2C1)c1ccc(OC(F)F)cc1 — lower, -17.4%
- COc1ccc(C(=O)Nc2nc(-c3ccccc3)c(C(C)=O)s2)c(OC)c1 — lower, 4.55%
- CN(CCc1ccccn1)C(=O)CCC1CCCN(C(=O)c2ccccn2)C1 (centres unmarked) — lower, 11.1%
- O=c1cc(O)nc(SCc2ccccc2)n1-c1ccccc1 — lower, 8.41%
- Cc1cccc(N(CC(=O)NC(C)(C)C)C(=O)CCC(=O)Nc2nccs2)c1 — lower, 7.95%
- COc1ccc(C(C)NC(=O)c2ccccc2Br)cc1OC (centres unmarked) — higher, 19.7%
- CC1CCN(C(=O)COC(=O)c2cccc(S(=O)(=O)N(C)c3ccccc3)c2)CC1 — lower, 1.78%
- CC1(C)CC(O)C(C)(C)N1O (centres unmarked) — lower, 10.4%
- COCCn1c(=O)[nH]c2cc(C(=O)OC)ccc2c1=O — higher, 14.3%
- Cc1cc2c(cc1C)C(c1cccc([N+](=O)[O-])c1)CC(=O)N2 (centres unmarked) — lower, 9.38%
- COc1ccc(Cc2nnc(SCC(=O)N3CCCC(C)C3)o2)cc1 (centres unmarked) — higher, 14.6%
- Cc1c(NC(=O)C2C3C=CC(C3)C2C(=O)O)c(=O)n(-c2ccccc2)n1C (centres unmarked) — lower, 11.3%
- Cc1n[nH]c(C)c1S(=O)(=O)N1CCCC(C(=O)NCc2ccccc2Cl)C1 (centres unmarked) — lower, -3.67%
- Cc1ccccc1Cn1nnc(-c2ccc(F)cc2)n1 — lower, 11.9%
- Cc1ccc(NC(=O)CN2C(=O)c3ccccc3C2=O)c(C)c1 — lower, 5.66%
- CC1(C)Cc2c(c(N3CCCC3)nc3sc4c(N5CCN(CCO)CC5)ncnc4c23)CO1 — lower, 6.67%
- Cc1c(C(=O)Nc2c(N)nc(SCC(=O)NCC3CCCO3)[nH]c2=O)cccc1[N+](=O)[O-] (centres unmarked) — lower, 11.1%
- CC(C)C(C(=O)NC1CCCC1)N(CC1CCCO1)C(=O)CNS(=O)(=O)c1ccc(F)cc1 (centres unmarked) — lower, 0.403%
- O=C1C(=O)N(CCN2CCOCC2)C(c2ccc(Cl)cc2)/C1=C(/O)c1ccc(S(=O)(=O)N2CCOCC2)cc1 (centres unmarked) — higher, 21%
- CCCN(N=Nc1cccc([N+](=O)[O-])c1)c1cccc([N+](=O)[O-])c1 — lower, 6.48%
- CCOc1ncccc1C(=O)OCC(=O)NCCc1ccc(OC)cc1 — lower, 6.01%
- CCOc1cccc(-c2nnc3sc(C4CCCCC4)nn23)c1 — lower, 6.38%
- Cc1cccc(NC(=S)N(CCN(C)C)C(C)c2ccccn2)c1 (centres unmarked) — lower, -1.77%
- CCNc1c(NS(=O)(=O)c2ccc([N+](=O)[O-])cc2)c(=O)oc2ccccc12 — higher, 16.4%
- CC(=O)Cc1nsc(NC(=O)C2Cc3ccccc3C(=O)O2)n1 (centres unmarked) — higher, 14.4%
- O=C(NCc1ccccc1Cl)C1CCN(c2ncnc3c2nc2n3CCCCC2)CC1 — lower, 4.21%
- Cc1ccc(S(=O)(=O)N2CCCC2)s1 — lower, 6.28%
- CS(=O)(=O)N(CCc1ccccc1)CC(=O)NCc1cccnc1 — lower, 2.13%
- COc1cccc(Oc2ccc3nnc(C(F)(F)F)n3n2)c1 — the same, 14.2%
- Cc1ccc(/C=C2/SC(=S)N(CCC(=O)N3CCN(C)CC3)C2=O)cc1 — lower, 7.56%
- Cc1ccc(C)c(S(=O)(=O)N2CCN(C(=O)CSC(=S)N3CCCC3)CC2)c1 — lower, -0.507%
- Cc1noc(C)c1COc1cccc(C(=O)NCCc2c[nH]c3ccccc23)c1 — lower, 9.09%
- O=C(/C=C/c1ccccc1[N+](=O)[O-])NNC(=O)c1ccncc1 — lower, 5.38%
- Nc1ncccc1C(=O)OCC(=O)NC1CCCCCC1 — lower, 7.78%
- CN(Cc1nc(-c2ccccc2)no1)C1CCOCC1 — lower, 8.22%
- CC(=O)Nc1ccc(CN2CCCCCCC2)cc1 — lower, 3.24%
- Cn1c(CCNC(=O)c2ccccc2)nc2cc(NC(=O)c3ccco3)ccc21 — lower, -1.52%
- CS(=O)(=O)/C(C#N)=C/c1c(-c2ccccc2)nc2n1CCS2 — lower, 10.8%
- Cc1[nH]c2ccc(S(N)(=O)=O)cc2c1C — lower, 13.4%
- Cc1cc([N+](=O)[O-])ccc1Nc1nc2ccccc2n2cnnc12 — lower, 11.6%
- O=C(CCn1c(=O)oc2ccccc21)NCCN1CCc2ccccc2C1 — lower, 2.42%
- COc1ccc(S(=O)(=O)N(CC(=O)NCC2CCCO2)c2ccccc2)cc1OC (centres unmarked) — lower, 12.7%
- Cc1ccc(S(=O)(=O)NNC(=S)Nc2ccccc2)cc1 — lower, -0.0574%
- CN(C)c1ccc(C(CNC(=O)c2ccco2)N2CCCC2)cc1 (centres unmarked) — lower, 13.2%
- CCCCn1c(=O)[nH]c(=O)c2c1nc(-c1ccc(OCCC)c(OCC)c1)n2CCOC — lower, 0.889%
- CCOc1ccccc1C(=O)N(C)Cc1cc2ccccc2[nH]c1=O — lower, 13.9%
- COc1ccc(-c2nc(C#N)c(NCc3ccccc3Cl)o2)cc1OC — lower, 5.18%
- CCC(c1nnnn1C1CCCC1)N1CCC(C(N)=O)CC1 (centres unmarked) — higher, 29.5%
- O=c1nc(/C=C/c2cccn2-c2ccc([N+](=O)[O-])cc2)cc(C(F)(F)F)[nH]1 — lower, 11.5%
- O=C(O)COCc1nc2ccccc2s1 — lower, 8.45%
- CCOc1ccc(NC(=O)CN(c2ccc(OC)cc2)S(C)(=O)=O)cc1 — lower, 8.87%
- COc1ccc(NC(=O)C2=CCN(S(=O)(=O)c3ccccc3)CC2)cc1OC — lower, 5.44%
- C=COCCNC(=S)N1CCOCCOCCN(C(=S)NCCOC=C)CCOCCOCC1 — lower, 11.4%
- N#Cc1c(-c2ccc(Cl)cc2Cl)nc2n(c1=O)CCS2 — lower, 7.79%
- COc1cc(C2=NOC(C(=O)NCc3cccnc3)C2)cc(OC)c1OC (centres unmarked) — lower, 8.35%
- NC(C(=O)O)C1CC(Cl)=NO1 (centres unmarked) — higher, 14.9%
- CCN(CC)C(=O)Cn1cc(C(=O)C(=O)NCCc2ccc(S(N)(=O)=O)cc2)c2ccccc21 — lower, -5.74%
- COc1ccc(C(CNC(=O)COc2ccccc2C#N)N2CCOCC2)cc1 (centres unmarked) — lower, 10.5%
- Cc1ccc(NS(=O)(=O)c2ccc3c(c2)c(=O)n(C)c(=O)n3C)cc1F — lower, 10.1%
- O=C1[C@@H]2CSCN2C(=O)CN1Cc1ccc(F)cc1 — lower, 7.25%
- CCOC(=O)c1c(C)[nH]c(C)c1S(=O)(=O)N(C)CC(=O)Nc1ccccc1 — higher, 16.5%
- COc1ccc(CCNC(=O)CCn2c(=O)[nH]c3cc(OC)c(OC)cc3c2=O)cc1OC — lower, 2.09%
- CCOC(=O)C1(CCOc2ccccc2)CCN(Cc2cc(OC)ccc2OC)CC1 — lower, -60.1%
- C=CCN1C(=O)C(O)(CC(=O)c2ccco2)c2cc(Br)ccc21 (centres unmarked) — lower, 13.5%
- N#CCC(=O)N/N=C/c1c(-c2ccccc2)n(-c2ccccc2)c2ccccc12 — lower, 12.6%
- O=C1CC(N2CCN(c3ccccn3)CC2)C(=O)N1c1ccc(Cl)cc1 (centres unmarked) — lower, -4.88%
- COCCCNC(=O)Cn1cc2c(n1)CCCCC2 — lower, 12.2%
- Cc1ccc(Cl)cc1NC(=O)COC(=O)Cn1cnc2c1c(=O)n(C)c(=O)n2C — lower, 9.94%
- Cc1cc(N/N=C/c2ccc(F)cc2)nc(-n2nc(C)cc2C)n1 — the same, 14.2%
- Cn1cc(Br)c(C(=O)Nc2sc3c(c2C(N)=O)CCCC3)n1 — higher, 16.7%
- CC(C)O/N=C1\C(=O)N(c2ccccc2)c2ccccc21 — lower, 0.997%
- Cn1nnnc1SCC(=O)Nc1cccc(S(=O)(=O)N2CCCC2)c1 — lower, 13.1%
- O=C1CC(c2ccccc2)n2nc(NC(=O)c3ccccn3)nc2N1 (centres unmarked) — lower, 4.17%
- Cc1cc(C)n(-c2ccc(C(=O)Nc3ccc(N4CCOCC4)cc3)cc2)n1 — lower, 3.93%
